Test results as given in ChEMBL document CHEMBL4888484, “Replenishing the malaria drug discovery pipeline: Screening and hit evaluation of the MMV Hit Generation Library 1 (HGL1) against asexual blood stage Plasmodium falciparum ,using a nano luciferase reporter read-out” (2022).
The whole screen tested about 150,000 compounds, of which about 540 (0.36%) showed an effect of 50% or more. The list shows a part of the results.

System: Plasmodium falciparum
Experiment: Primary screen in NF54 nanoGlo assay, in single point, at 2uM, 72h; a lower Z score goes with more inhibition
Assay type: functional, Erythrocyte
Details: timepoint 72 hour

Compound	% Inhibition [%]	Z score
O=C(Cc1ccc(Cl)c(Cl)c1)N1CCN(CCc2cnccn2)CC1	-26	3.42
OCCN1CCN(Cc2cccc3c2OCO3)CC1	-5	0.49
O=C(c1cc2n(n1)CCN(Cc1ccc(Cl)cc1)C2=O)N1CCC2(CC1)OCCO2	1	-0.21
Cc1ccc(CC(C)NC(=O)NC2CCC(=O)N(C)C2)c(C)c1 (stereo not drawn)	-5	0.56
CCc1ccc(S(=O)(=O)N(C(=O)Oc2ccccc2)c2ccc(OC(=O)Oc3ccccc3)cc2)cc1	-11	1.88
Cc1nnc(CN2C[C@@H]3CC[C@H]2CN(Cc2ccccn2)C3)o1	0	-0.04
COc1ccc(-c2ccccc2N2CCNCC2)c2ccc(C)nc12	29	-0.96
O=C1CCCN1CC(=O)N(Cc1ccsc1)c1cccnc1	-11	1.15
Nc1ncnc(NCCc2cnc(C3CC3)nc2)c1Cl	-3	0.38
CCOc1cccc2c1cc(C(=O)NCc1ccc(F)cc1)n2CCOC	-13	1.44
O=C(O)CCN1C[C@H](c2ccccc2)[C@@H]2[C@H]1C1CCN2CC1	1	-0.1
NC(=O)CN[C@@H](Cc1ccccn1)c1ccc(Br)cc1	10	-1.25
CCN1CCCN(C(=O)COc2ccc(F)cc2)CC12CCOCC2	-13	1.7
FC1(F)CCN(CCc2ccncc2)C1	-3	0.48
COc1ccc(CCNC2CCCCCCC2)cc1	-3	0.59
CC(=O)N1c2ccc(C)cc2[C@H]2CN(C)CCCC21 (stereo partly drawn)	-2	0.3
O=C(NC1CC1)[C@H]1CN2CC[C@H]1C[C@@H]2Cn1cc(-c2cccc(O)c2)nn1	34	-3.87
CCNC(=O)CNC(=O)N[C@@H](C)Cc1ccccc1Br	-8	0.77
O=c1[nH]c2ccccc2cc1CN1C[C@@H]2CS(=O)(=O)C[C@@H]2C1	-9	0.89
O=C(Oc1c(Br)cc(Br)c2ccccc12)N1CCOCC1	-5	0.67
Cc1ncccc1CN1CC2(CCOCC2)CC[C@@H]1CO	-4	0.48

Compound	% Inhibition [%]	Z score
CC1=CCCN(C(=O)NCc2cn(C(C)C)c(=O)[nH]c2=O)C1	0	-0.09
O=C(NC1CC1c1ccccc1)N1C2CCC1C(CO)C2 (stereo not drawn)	0	0.06
COc1ccc(-n2nnnc2C2(N3CCCCC3)CCCCC2)cc1OC	-6	0.89
CN(Cc1ccccc1)C(=O)CCN1C[C@H](C(=O)O)[C@@H](c2ccc(F)cc2)C1	-5	0.63
c1ccc2c(N3CCNCC3)nsc2c1 [BENZISOTHIAZOLE-3-YL-PIPERAZINE]	1	-0.08
COC(=O)[C@@H](Cc1ccccc1)NC(=O)CN1CCCC1=O	-4	0.33
CN1CC[C@@H]2CN(C(=O)Cc3ccccn3)C[C@@H]21	-18	2.11
CCN1CCC2C(C1)OCCN2C(=O)c1cccnc1 (stereo not drawn)	-7	1.19
CC(C)(C)c1ncc2c(n1)CC1CCC2N1C(=O)N[C@H]1COC[C@H]1n1ccnn1 (stereo partly drawn)	-3	0.34
Fc1cnc(N2C[C@@H]3C[C@H]2CN3Cc2ccccc2)nc1	6	-0.72
N[C@@H](Cn1cccn1)c1ccc(Cl)cc1	-13	1.75
O=C(c1sc2cc(F)ccc2c1Cl)N1CCC2(CC1)OCCO2	-7	1.17
Cc1nnc2ccc(N3CC[C@@]4(CCCN(C)C4)C3)nn12	-10	2.02
CN1CCC2OCCN(c3ccc(C(F)(F)F)cn3)C2C1 (stereo not drawn)	-43	5.02
Cc1cc(N2C3CCC2c2ccccc23)nc(C)n1	-20	2.53
COc1cc2c(cc1OC)CN([C@H]1CCCN(C(=O)Cc3ccc4c(c3)OCO4)C1)CC2	-2	0.33
Cc1c(C(=O)N2CCC3(CC2)OCCO3)oc2ccccc12	-14	1.99
COc1ccccc1[C@@H]1CN(C(=O)c2[nH]cnc2C)[C@@H]2C3CCN(CC3)[C@@H]21	0	0.1
CN1[C@@H]2CC[C@H]1c1c(nc(N)c(C#N)c1-c1cccc(OCC(N)=O)c1)C2	-9	1.87
CN(C(=O)CN1CCCC1=O)c1ccccc1	-28	3.25
CCC#CCN1C[C@H]2c3ccc(OC)cc3OC[C@@]2(C(=O)O)C1	-2	0.38

Compound	% Inhibition [%]	Z score
CCn1ccc(C(=O)N2C[C@@H](c3cccc(F)c3F)[C@@H]3[C@H]2C2CCN3CC2)n1	-2	0.35
COc1ccc(CC(=O)N2CCC3(CC2)c2nccn2-c2ccccc2CN3C)cc1	6	-0.8
CC[C@H]1CCCCN1C(=O)CN1CCCC1=O	-4	0.53
CN1C2CCC1CN(c1ncnc3c(F)cccc13)CC2 (stereo not drawn)	9	-1.33
Cc1ccc(Cl)cc1S(=O)(=O)N1Cc2cccnc2C1	-15	2.77
CNS(=O)(=O)N1CCC[C@H]1c1cccnc1	-8	1
C[C@@H](Cc1nc2ccccc2s1)NCCc1ccsc1	0	0.03
O=C(c1cccs1)N1CC(C(=O)N2CCC3(CC2)OCCO3)C1	-5	0.82
CC(C)[C@@H]1N(CC2CC2)CC12CCOCC2	12	-1.35
CN1C[C@@H]2CN(c3ncnc4ccc(F)cc34)C[C@@H]2C1	-8	0.66
CC(C)Cc1csc(C2CN3CCCC3CO2)n1 (stereo not drawn)	7	-0.97
CC(C)N(C)C(=O)Cc1ccc(S(=O)(=O)F)cc1	-2	0.23
CCN(C1CCN(C)CC1)C1CN(C(=O)COc2ccc(F)cc2)C1	-17	2.24
C[C@H]1CC[C@H](C(=O)N2C[C@H]3c4ccccc4OC[C@@]3(C(=O)O)C2)CC1	-12	1.6
Cc1cc(F)cc(-c2c(C#N)c(N)nc3c2[C@@H]2CC[C@H](C3)N2C)c1	3	-0.45
Cc1csc2c(N3CC4CCCN4CC3C)ncnc12 (stereo not drawn)	2	-0.34
Cc1cc(Br)cn2c(CN3CCNCC3)cnc12	2	-0.29
Cc1ocnc1C(=O)N1C[C@H](c2cc(F)cc(F)c2)[C@@H]2[C@H]1C1CCN2CC1	-3	0.41
O=C1N(c2ccccc2)C(=O)C2(Cc3ccc(Cl)cc3N3CCOC[C@H]32)C(=O)N1c1ccccc1	7	-0.91
Cc1cc(C)n2ncc(CN3C[C@@H]4CC[C@H](C3)C(=O)N4)c2n1	-11	1.38
Nc1nccc(N2C[C@H](c3cccc(F)c3F)[C@@H]3[C@H]2C2CCN3CC2)n1	-10	1.75

Compound	% Inhibition [%]	Z score
O=C(NCc1cccnc1)C(Cl)(Cl)Cl	-17	2.23
Cc1nc(C(C)C)cc(N2C[C@H]3COc4ccccc4C[C@@]3(C(=O)O)C2)n1	-11	1.63
CN1CCN2CCN(c3ccc(-c4ccccc4)nn3)C[C@H]2C1=O	-9	0.88
Cc1ccc(C(C)C)c(OC(=O)NCCCCNC(=O)Oc2cc(C)ccc2C(C)C)c1	-13	1.96
O=C(NC[C@@H](c1ccco1)S(=O)(=O)c1ccccc1)Oc1ccccc1	-8	1.22
CCC(=O)N1C[C@@H](c2cc(F)cc(F)c2)[C@@H]2[C@H]1C1CCN2CC1	1	-0.19
Fc1ccc(COc2ccc3c(c2)CCNC3)cc1	-4	0.67
Cc1cc(C)cc(NC(=O)[C@H]2CC23CCNCC3)c1	-5	0.97
C[C@@H](Cc1ccsc1)NCc1cn(CC(F)(F)F)c(=O)[nH]c1=O	-1	0.22
CCCc1nn(Cc2ccn(C(C)C)n2)c(=O)o1	-9	0.81
O=C(c1ccc(Cl)cc1)N1C[C@H]2c3ccccc3OC[C@@]2(C(=O)O)C1	-9	1.17
COC(=O)C1C2C(=O)N(c3ccc(OC)cc3)C(=O)C12c1ccc(C)cc1 (stereo not drawn)	3	-0.35
COc1ccccc1CCN1C(=O)N(c2cccc(C(F)(F)F)c2)[C@@H](n2oc(=O)n(-c3cccc(C(F)(F)F)c3)c2=O)C1(C)C	-4	0.56
CC(C)(O)CN[C@@H](Cc1cccnc1)c1cccc(Cl)c1	-12	1.6
CC(C)C(C)(O)C(=O)N1C2CCC1C(CO)C2 (stereo not drawn)	-5	0.99
CC(C)N1C(=O)NC(=O)C2(Cc3c(Cl)cccc3N3CCCC32)C1=O (stereo not drawn)	-6	0.84
CN(C)CCc1ccc(NC(=O)[C@@H]2CCCCN2C)cc1	4	-0.49
CCc1nccn1C[C@H](C)N1CCN(C(C)C)CC1	2	-0.47
C=C(C)C(C)(C)C(=O)Nc1cccc(S(=O)(=O)F)c1	-3	0.36
CC(C)(C)N1C(=O)NC(=O)C2(Cc3cc(NC(=O)c4ccc(F)cc4)ccc3N3CCCCCC32)C1=O (stereo not drawn)	-8	1.59
CC(C)N1C[C@@H]2OCC(=O)N(C(C)C)[C@@H]2C1	15	-1.71
